From PubChem BioAssay AID1030 (National Center for Advancing Translational Sciences (NCATS), 2008)
In all, about 220,000 compounds went through this assay and about 16,000 (7.3%) were called active. The shares of active, inactive and inconclusive entries below differ from those in the screen. Calls follow the shape of the dose curve; as a rule, active = well fitted inhibition curve with a large enough effect (not every such curve was filed as active); inconclusive = small, poorly fitted or top-dose-only effect, or another doubt; inactive = no such curve, though single readings can be large or run the other way. Where the call is inconclusive, the potency comes from a doubtful curve fit.

The compounds below were run against Aldehyde dehydrogenase 1A1 (Homo sapiens) (UniProt P00352) (assay: qHTS Assay for Inhibitors of Aldehyde Dehydrogenase 1 (ALDH1A1)). Settings: Purified ALDH1A1, NADH fluorescence, propionaldehyde substrate; series mostly up to 75.3 µM; activity, negative = inhibition: at the top concentration.
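For activity, negative = inhibition in this document: plate controls were no enzyme wells and a reference inhibitor.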
Potency is read from the fitted curve at half-maximal effect; tags tell the direction and shape of the fitted curve.

Sequence of UniProt P00352 (P00352 whole entry, looked up): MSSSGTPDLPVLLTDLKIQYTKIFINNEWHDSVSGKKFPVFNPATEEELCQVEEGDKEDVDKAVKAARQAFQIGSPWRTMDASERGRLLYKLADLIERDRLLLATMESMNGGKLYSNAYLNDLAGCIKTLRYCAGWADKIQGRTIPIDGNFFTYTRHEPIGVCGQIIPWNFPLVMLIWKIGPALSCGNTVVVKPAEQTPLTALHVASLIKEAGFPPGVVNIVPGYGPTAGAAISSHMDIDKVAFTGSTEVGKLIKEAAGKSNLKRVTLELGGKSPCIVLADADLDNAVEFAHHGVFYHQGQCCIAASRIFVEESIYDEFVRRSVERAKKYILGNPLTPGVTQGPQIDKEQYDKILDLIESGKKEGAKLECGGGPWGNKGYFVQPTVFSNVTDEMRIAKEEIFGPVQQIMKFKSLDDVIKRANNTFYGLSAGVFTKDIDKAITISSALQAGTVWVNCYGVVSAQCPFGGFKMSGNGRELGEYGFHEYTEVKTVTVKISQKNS

Potency, inconclusive:
O=C(CSc1ccccn1)c1ccc(F)cc1 31.6 µM [inhibitor, single point], O=C(NCc1ccco1)c1cnn2c(C(F)(F)F)cc(-c3ccco3)nc12 31.6 µM [inhibitor, partial curve], Oc1ccccc1/C=N/Nc1ccccc1 39.8 µM [inhibitor, single point], COc1ccccc1CNc1ncnc2ccc(-c3cccc(NS(C)(=O)=O)c3)cc12 44.7 µM [inhibitor, single point], CCOc1ccccc1-c1nc(-c2cc3ccccc3nc2OC)no1 39.8 µM [inhibitor, single point], CC(=O)c1ccc(NC(=O)Nc2sc(NS(=O)(=O)c3ccccc3)nc2C)cc1 39.8 µM [inhibitor, single point], Cc1nn(-c2cccc(Cl)c2)c2nc(-c3ccco3)cc(C(=O)O)c12 39.8 µM [inhibitor, single point], CCC(=O)c1cc2c(cc1NC(=O)c1ccccc1)OCCO2 31.6 µM [inhibitor, partial curve], COc1cc(CNc2ccc3[nH]c(=O)[nH]c3c2)ccc1OCC(=O)NC(C)(C)C 22.4 µM [inhibitor, partial curve], Cc1ccc([N+](=O)[O-])cc1-c1ccc(/C=N/NC(=O)CN2CCOCC2)o1 39.8 µM [inhibitor, single point], CCn1c(NCc2ccccn2)nc2ccccc21 8.91 µM [inhibitor, partial curve], CC1CCCN(C(=S)Nc2ccc(F)cc2)C1 (centres undefined) 20 µM [inhibitor, partial curve], CCOC(=O)c1c(C)[nH]c(C)c1C(=O)CSc1nc2ccccc2n1CCC#N 7.08 µM [inhibitor, single point], Cc1ccc(N2C(=O)CSC2=S)cc1C 39.8 µM [inhibitor, single point], Cc1sc2ncnc(Sc3nnnn3-c3ccc(Cl)cc3)c2c1C 17.8 µM [inhibitor, partial curve], C(=N\c1c(-c2ccccc2)nc2n1CCS2)/c1ccccc1 39.8 µM [inhibitor, single point], Cn1c2ccccc2c(=O)c2c(=O)n(-c3ccccc3)c(-c3ccc(C(C)(C)C)cc3)nc21 15.8 µM [inhibitor, partial curve], Cc1ccc(N2C(=O)N(CC(=O)Nc3cc(C)cc(C)c3)C(=O)C2C)cc1 (centres undefined) 39.8 µM [inhibitor, single point], Cc1[nH]nc2c1C(c1ccc(F)cc1)C(C#N)=C(N)O2 (centres undefined) 25.1 µM [inhibitor, single point], COc1ccc(Cn2c(SCC#N)nc3ccc(N4CCOCC4)cc3c2=O)cc1 35.5 µM [inhibitor, single point], O=c1ccc(/C=C/c2ccccc2)nn1Cc1ccc(F)cc1 39.8 µM [inhibitor, single point], CC(C)(C)C1CCc2c(sc3c2C(=O)NC(c2ccco2)N3)C1 (centres undefined) 28.2 µM [inhibitor, single point], Cc1oc(-c2ccccc2Cl)nc1CN1CCCC1c1ccc(F)cc1 (centres undefined) 39.8 µM [inhibitor, single point], O=C1CCCN1CN(C(=O)c1ccc2c(c1)OCO2)c1cccc(Cl)c1 28.2 µM [inhibitor, single point], COc1ccc(Br)cc1/C=C\C(=O)NCc1cccnc1 39.8 µM [inhibitor, single point], COc1ccc(-c2cc(C(F)(F)F)nc(NCc3ccco3)n2)cc1OC 39.8 µM [inhibitor, single point], c1ccc(CSc2nnc3ccc(-c4ccco4)nn23)nc1 31.6 µM [inhibitor, partial curve], Cc1ccc(NC(=O)COc2ccc(CCO)cc2-n2nc3ccccc3n2)cc1C 22.4 µM [inhibitor, partial curve], O=C(CCS(=O)(=O)c1cccc2nonc12)N1CCOCC1 28.2 µM [inhibitor, single point], CCc1ccc2c(CN3CCc4ccccc43)cc(=O)oc2c1 39.8 µM [inhibitor, single point], Cc1nn(-c2ccccc2)c(C)c1NC(=O)COc1ccc(Cl)cc1Cl 12.6 µM [inhibitor, partial curve], Cc1c(C(=O)NC(=S)Nc2ccc3c4c(cccc24)CC3)cccc1[N+](=O)[O-] 25.1 µM [inhibitor, partial curve], Brc1ccc(C2Nc3cccc4cccc(c34)N2)s1 39.8 µM [inhibitor, single point], CC(=O)Nc1ccc(NC(=O)CCC(=O)OCC(=O)c2cccc([N+](=O)[O-])c2)cc1 28.2 µM [inhibitor, partial curve], O=C(Cn1nnc(-c2ccccc2NC(=O)c2ccco2)n1)Nc1ccccc1 37.7 µM [inhibitor, single point], CCOC(=O)C1=C(C)OC(N)=C(C#N)C1c1ccsc1 (centres undefined) 44.7 µM [inhibitor, single point], CCc1ccc2[nH]c(=O)c(C3C(C#N)=C(N)Oc4c3ccc3cccnc43)cc2c1 (centres undefined) 35.5 µM [inhibitor, single point]

Potency, active:
CCn1c(SCC(=O)N/N=C/c2cc(OC)c(OC)c(OC)c2)nc2ccccc21 25.1 µM, COc1ccc(/C(O)=C2\C(=O)C(=O)N(CCN(C)C)C2c2cc(OC)c(OC)c(OC)c2)c(C)c1 (centres undefined) 28.2 µM, CCOC(=O)c1c(NC(=O)CCl)sc(C(=O)N(CC)CC)c1C 10 µM, O=C1C[C@@H]2CCN3C(=O)CCC[C@@H]([C@H]23)[C@@H]1Cc1ccccc1 15.8 µM, Cc1cc(O)ccc1Nc1nc2ccccc2nc1Nc1ccc(O)cc1C 22.4 µM, COc1ccc2ccccc2c1C(=O)/C=C\c1ccoc1 20 µM, COC(=O)c1c(NC(=S)Nc2cc(OC)c(Cl)cc2OC)sc2c1CCCCC2 6.31 µM, Cc1cc2oc(=O)cc(-c3ccccc3)c2c(C)c1-c1ccc(C#N)cc1 12.6 µM, CC(C)CCN(CCC(C)C)C(CO)(CO)CO 28.2 µM, O=C(Nc1cccnc1)/C(N=Nc1cccnc1)=C(\O)c1ccccc1 1.41 µM, CN(C(=O)c1cccc(Nc2ccc(-c3ccc4c(c3)OCCO4)nn2)c1)C1CCCCC1 25.1 µM, COc1ccc(CN(Cc2ccc(C(=O)O)cc2)C(=S)Nc2ccccc2F)cc1OC 12.6 µM, Cc1cc(C)nc(-n2nc(C)cc2NC(=O)CN2CCC(C)CC2)n1 3.55 µM, CC1Cc2ccccc2N1C(=O)CN1CCC(n2nnc3cc(C(F)(F)F)ccc32)CC1 (centres undefined) 11.2 µM

Potency, inactive:
COC(=O)[C@@H](N)CSC/C=C(\C)CC/C=C(\C)CCC=C(C)C

activity, negative = inhibition, inactive:
CC(=O)Nc1ccc(N2CCOCC2)c([N+](=O)[O-])c1 -4.28%, CCOc1ccc(OCCCCn2ccnc2)cc1 -8.7%, Cn1cccc1Cc1nnc(SCC(=O)NCCc2ccccc2)n1-c1ccc(F)cc1 -0.308%, Brc1ccc(OCCCCCN2CCOCC2)cc1 -13%, COc1cc(OC)cc(C(=O)N2CCCc3ccccc32)c1 -14.8%, Cc1c(Cl)cccc1NC(=S)NCCc1ccc(C(F)(F)F)cc1 -0.734%, FC(F)(F)c1ccccc1-c1cc(NCc2cccs2)ncn1 -4.62%, Cc1ccc(-c2ccc(/C=N/NC(=O)c3ccccc3O)o2)cc1 -10.1%, Cc1cc(NC(=O)CSc2ncnc3sccc23)no1 -1.09%, CC(=O)c1sc(-c2ccccc2)nc1C 0.239%, COCC(=O)N1CCC[C@@]2(CCN(C(c3ccccc3)c3ccccc3)C2)C1 4.58%, O=S(=O)(c1ccccc1)N1CCN(c2nc3ccccc3s2)CC1 3.33%, COc1ccccc1N1C(=O)C2C3C=CC(C3)C2C1=O (centres undefined) -5.3%, CCOC(=O)N1CCN(C(=O)CSc2ccc(-c3ccc(OC)cc3)nn2)CC1 -4.04%, COc1ccc(CN(Cc2ccc(C(=O)O)cc2)C(=S)Nc2ccc(C)cc2)cc1OC -5.21%, CCOC(=O)c1[nH]c(CSc2nnc(-c3ccncc3)n2CCOC)c(C(=O)OCC)c1C 4.78%, O=C(O)/C=C\C(=O)N1Cc2cc3ccccc3nc2C1 -9.94% [at 13.5 µM], Clc1nc(Cl)nc(NCCC2=CCCCC2)n1 -0.673%, COC(=O)[C@@H]1CCCN1C(=O)[C@@H](C)CO -3.72% [at 13.5 µM], COc1cc(/C=C2\SC(=S)N(Nc3ncc(C(F)(F)F)cc3Cl)C2=O)ccc1O -9.88%, Cc1ccc(NC(=O)COC(=O)/C=C/c2cccs2)c(C)c1 5.39%, COc1nc(NCCN2CCOCC2)nc(Nc2ccccc2)n1 4.05%, Cc1sc2nc(SCC(=O)NCc3ccco3)[nH]c(=O)c2c1C -5.88%, Cc1nc2ccccc2n(CC(=O)Nc2cc(Cl)cc(Cl)c2)c1=O -6.53%, O=C(CN1C(=O)CCS(=O)(=O)c2ccccc21)Nc1cccc(F)c1 16.9%, O=C(O)/C=C\C(=O)Nc1ccccc1C#Cc1ccccc1 -8.5%, CC1(C(=O)NC2CCCCCCC2)CCC(=O)N1Cc1cccs1 (centres undefined) 5.66%
